Where a chain is given by its changes, count along the chain named. Some of the results follow.
B1: GCUACUG (DNA:RNA)
RNA: GGGAGACCGGAAUUCAGAUUGUCCGCUACUGUUAAAUCCCGUCGUAGCCACCA
DNA 1: CAATCTGAATTCCGGTCTCCC
DNA 2: TGGTGGCTACGACGGGATT
B2: UUUAGAC (DNA:RNA)
RNA: B1 RNA with G25U, C26U, C29G, U30A, G31C
DNA 1: CAATCTGAATTCCGGTCTCCC
DNA 2: TGGTGGCTACGACGGGATT
B3: UGAGAGG (DNA:RNA)
RNA: B1 RNA with G25U, C26G, U27A, A28G, C29A, U30G
DNA 1: CAATCTGAATTCCGGTCTCCC
DNA 2: TGGTGGCTACGACGGGATT
B4: AAUCGCC (DNA:RNA)
RNA: B1 RNA with G25A, C26A, A28C, C29G, U30C, G31C
DNA 1: CAATCTGAATTCCGGTCTCCC
DNA 2: TGGTGGCTACGACGGGATT
B5: GCCUAAC (DNA:RNA)
RNA: B1 RNA with U27C, A28U, C29A, U30A, G31C
DNA 1: CAATCTGAATTCCGGTCTCCC
DNA 2: TGGTGGCTACGACGGGATT
B6: AGACCAU (DNA:RNA)
RNA: B1 RNA with G25A, C26G, U27A, A28C, U30A, G31U
DNA 1: CAATCTGAATTCCGGTCTCCC
DNA 2: TGGTGGCTACGACGGGATT
B7: AGGUGCU (DNA:RNA)
RNA: GGGAGACCGGAAUUCAGAUUGUCCAGGUGCUUUAAAUCCCGUCGUAGCCACCA
DNA 1: CAATCTGAATTCCGGTCTCCC
DNA 2: TGGTGGCTACGACGGGATT
B8: AUUGAUU (DNA:RNA)
RNA: B7 RNA with G26U, G27U, U28G, G29A, C30U
DNA 1: CAATCTGAATTCCGGTCTCCC
DNA 2: TGGTGGCTACGACGGGATT
B9: CCGCCAU (DNA:RNA)
RNA: B7 RNA with A25C, G26C, U28C, G29C, C30A
DNA 1: CAATCTGAATTCCGGTCTCCC
DNA 2: TGGTGGCTACGACGGGATT
B10: UCUUAAA (DNA:RNA)
RNA: B1 RNA with G25U, A28U, C29A, U30A, G31A
DNA 1: CAATCTGAATTCCGGTCTCCC
DNA 2: TGGTGGCTACGACGGGATT
B11: GGAUUUU (DNA:RNA)
RNA: B7 RNA with A25G, G27A, G29U, C30U
DNA 1: CAATCTGAATTCCGGTCTCCC
DNA 2: TGGTGGCTACGACGGGATT
B12: CCCCUAG (DNA:RNA)
RNA: B1 RNA with G25C, U27C, A28C, C29U, U30A
DNA 1: CAATCTGAATTCCGGTCTCCC
DNA 2: TGGTGGCTACGACGGGATT
B13: ACAUAUC (DNA:RNA)
RNA: B7 RNA with G26C, G27A, G29A, C30U, U31C
DNA 1: CAATCTGAATTCCGGTCTCCC
DNA 2: TGGTGGCTACGACGGGATT
B14: GGAGUUU (DNA:RNA)
RNA: B7 RNA with A25G, G27A, U28G, G29U, C30U
DNA 1: CAATCTGAATTCCGGTCTCCC
DNA 2: TGGTGGCTACGACGGGATT
B15: ACCAGAG (DNA:RNA)
RNA: B1 RNA with G25A, U27C, C29G, U30A
DNA 1: CAATCTGAATTCCGGTCTCCC
DNA 2: TGGTGGCTACGACGGGATT
B16: UGGGCGG (DNA:RNA)
RNA: B7 RNA with A25U, U28G, G29C, C30G, U31G
DNA 1: CAATCTGAATTCCGGTCTCCC
DNA 2: TGGTGGCTACGACGGGATT
B17: CCGCGUC (DNA:RNA)
RNA: B7 RNA with A25C, G26C, U28C, C30U, U31C
DNA 1: CAATCTGAATTCCGGTCTCCC
DNA 2: TGGTGGCTACGACGGGATT
B18: ACAACAG (DNA:RNA)
RNA: B1 RNA with G25A, U27A, U30A
DNA 1: CAATCTGAATTCCGGTCTCCC
DNA 2: TGGTGGCTACGACGGGATT
B19: AUUAUAG (DNA:RNA)
RNA: B1 RNA with G25A, C26U, C29U, U30A
DNA 1: CAATCTGAATTCCGGTCTCCC
DNA 2: TGGTGGCTACGACGGGATT
B20: UUGGAUG (DNA:RNA)
RNA: B1 RNA with G25U, C26U, U27G, A28G, C29A
DNA 1: CAATCTGAATTCCGGTCTCCC
DNA 2: TGGTGGCTACGACGGGATT
B21: UCGAACU (DNA:RNA)
RNA: B7 RNA with A25U, G26C, U28A, G29A
DNA 1: CAATCTGAATTCCGGTCTCCC
DNA 2: TGGTGGCTACGACGGGATT
B22: AGACGUC (DNA:RNA)
RNA: B7 RNA with G27A, U28C, C30U, U31C
DNA 1: CAATCTGAATTCCGGTCTCCC
DNA 2: TGGTGGCTACGACGGGATT
B23: AGCUGGA (DNA:RNA)
RNA: B7 RNA with G27C, C30G, U31A
DNA 1: CAATCTGAATTCCGGTCTCCC
DNA 2: TGGTGGCTACGACGGGATT
B24: CGUAUUG (DNA:RNA)
RNA: B1 RNA with G25C, C26G, C29U
DNA 1: CAATCTGAATTCCGGTCTCCC
DNA 2: TGGTGGCTACGACGGGATT
B25: UCCGGUG (DNA:RNA)
RNA: B1 RNA with G25U, U27C, A28G, C29G
DNA 1: CAATCTGAATTCCGGTCTCCC
DNA 2: TGGTGGCTACGACGGGATT
B26: GCAGAUA (DNA:RNA)
RNA: B1 RNA with U27A, A28G, C29A, G31A
DNA 1: CAATCTGAATTCCGGTCTCCC
DNA 2: TGGTGGCTACGACGGGATT
B27: CAACGUA (DNA:RNA)
RNA: B7 RNA with A25C, G26A, G27A, U28C, C30U, U31A
DNA 1: CAATCTGAATTCCGGTCTCCC
DNA 2: TGGTGGCTACGACGGGATT
B28: UCGACAA (DNA:RNA)
RNA: B1 RNA with G25U, U27G, U30A, G31A
DNA 1: CAATCTGAATTCCGGTCTCCC
DNA 2: TGGTGGCTACGACGGGATT
B29: UUGCUAG (DNA:RNA)
RNA: B7 RNA with A25U, G26U, U28C, G29U, C30A, U31G
DNA 1: CAATCTGAATTCCGGTCTCCC
DNA 2: TGGTGGCTACGACGGGATT
B30: CCAUUAG (DNA:RNA)
RNA: B1 RNA with G25C, U27A, A28U, C29U, U30A
DNA 1: CAATCTGAATTCCGGTCTCCC
DNA 2: TGGTGGCTACGACGGGATT
B31: CCUCGUG (DNA:RNA)
RNA: B1 RNA with G25C, A28C, C29G
DNA 1: CAATCTGAATTCCGGTCTCCC
DNA 2: TGGTGGCTACGACGGGATT

Target: T1, RBFOX1 RRM (Homo sapiens, UniProt Q9NWB1 109-208)
T1 sequence: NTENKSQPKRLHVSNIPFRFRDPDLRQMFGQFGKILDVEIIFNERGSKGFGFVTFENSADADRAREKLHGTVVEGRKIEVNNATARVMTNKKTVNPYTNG
Assay: EMSA; HiTS-Eq, 1 nM pool, 10 min; buffer printed only for the single-RNA assays: 10 mM Tris pH 7.5, 150 mM NaCl, 3.4 mM EDTA, 0.001% NP-40, 30 C
Details: tags: His6 N-terminal (pET28a); label: 5' 32P
In short: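 These values rest on relative association constants, computed from read-count changes of each RNA species versus the control reaction and normalised to the cognate motif. Reads came from free RNA recovered by 8% native PAGE after purified RbFox RRM (wild type or mutant) at increasing concentrations was equilibrated for 10 min in 50 µL with 1 nM of a 5′-radiolabelled pool with 7 randomized nucleotides and DNA-annealed flanks.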

Binder	binding signal
B1	0.0197 KA relative to UGCAUGU
B2	0.0117 KA relative to UGCAUGU
B3	0.0138 KA relative to UGCAUGU
B4	0.004 KA relative to UGCAUGU
B5	0.00414 KA relative to UGCAUGU
B6	0.00117 KA relative to UGCAUGU
B7	0.0168 KA relative to UGCAUGU
B8	0.00786 KA relative to UGCAUGU
B9	0.00241 KA relative to UGCAUGU
B10	0.00223 KA relative to UGCAUGU
B11	0.0184 KA relative to UGCAUGU
B12	0.00363 KA relative to UGCAUGU
B13	0.000516 KA relative to UGCAUGU
B14	0.0247 KA relative to UGCAUGU
B15	0.00454 KA relative to UGCAUGU
B16	0.0408 KA relative to UGCAUGU

Binder	binding signal
B17	0.0124 KA relative to UGCAUGU
B18	0.00147 KA relative to UGCAUGU
B19	0.00501 KA relative to UGCAUGU
B20	0.0302 KA relative to UGCAUGU
B21	0.00753 KA relative to UGCAUGU
B22	0.0085 KA relative to UGCAUGU
B23	0.00412 KA relative to UGCAUGU
B24	0.0121 KA relative to UGCAUGU
B25	0.00817 KA relative to UGCAUGU
B26	0.007 KA relative to UGCAUGU
B27	0.000893 KA relative to UGCAUGU
B28	0.00395 KA relative to UGCAUGU
B29	0.0399 KA relative to UGCAUGU
B30	0.00313 KA relative to UGCAUGU
B31	0.0157 KA relative to UGCAUGU

— PMC9911399, “Two distinct binding modes provide the RNA-binding protein RbFox with extraordinary sequence specificity”
